Experimental data as given in article PMC6919601, “Identification of Plasmodium dipeptidyl aminopeptidase allosteric inhibitors by high throughput screening” (PLoS ONE, 2019).
Values joined by “and” are separate entries in the source; they are usually repeats but may differ in a detail not shown here. Identical values can stand only once. The campaign covered roughly 110,000 compounds. About 230 (0.21%) showed an effect of 50% or more. The list shows a part of the results.

molecular target: DPAP1 (Plasmodium falciparum, UniProt Q8IIJ9); experiment: primary screen, percent inhibition; read by cleavage of a fluorogenic dipeptide substrate; higher = more effect of the substance; set-up: species or system P. falciparum D10 trophozoite lysates; single well
Sequence (Q8IIJ9 whole entry, looked up): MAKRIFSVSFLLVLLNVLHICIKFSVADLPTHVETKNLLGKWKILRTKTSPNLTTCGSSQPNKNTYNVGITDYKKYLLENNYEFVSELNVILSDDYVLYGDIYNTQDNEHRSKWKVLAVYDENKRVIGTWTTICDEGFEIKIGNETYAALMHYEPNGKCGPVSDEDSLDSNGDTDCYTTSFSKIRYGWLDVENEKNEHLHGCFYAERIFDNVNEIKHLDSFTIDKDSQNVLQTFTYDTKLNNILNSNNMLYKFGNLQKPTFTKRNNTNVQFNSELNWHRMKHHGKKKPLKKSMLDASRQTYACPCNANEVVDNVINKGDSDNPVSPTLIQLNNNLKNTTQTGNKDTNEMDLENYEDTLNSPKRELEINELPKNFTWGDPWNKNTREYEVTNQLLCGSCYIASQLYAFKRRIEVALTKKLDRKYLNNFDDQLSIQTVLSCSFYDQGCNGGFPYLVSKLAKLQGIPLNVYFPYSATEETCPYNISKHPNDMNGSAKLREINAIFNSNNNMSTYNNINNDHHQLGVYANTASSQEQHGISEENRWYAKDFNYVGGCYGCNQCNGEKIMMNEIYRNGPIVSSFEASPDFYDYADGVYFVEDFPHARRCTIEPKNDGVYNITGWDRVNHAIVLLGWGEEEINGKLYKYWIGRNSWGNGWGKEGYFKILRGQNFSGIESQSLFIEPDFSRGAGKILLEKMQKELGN
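Further: 30 min substrate incubation versus DMSO and 10 µM JCP410 controls.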

| Structure (SMILES) | % Inhibition @ 10 uM |
| --- | --- |
| FC(F)(F)c1cccc(-n2nnc(-c3ccccc3)n2)c1 | 0.00706% |
| CCC1C(c2ccccc2)=NN(CC)c2nc3c(c(=O)n(C)c(=O)n3C)n21 (stereo not shown) | -0.703% |
| Cc1ccccc1S(=O)(=O)Nc1ccc2c(c1)OCO2 | -4.12% |
| Cc1ccc(S(=O)(=O)c2cc3cc(Cl)ccc3oc2=O)cc1 | -4.97% |
| CCOc1ccccc1CNC(=O)Cn1nc(C)c2c(C)n(-c3ccc(C)cc3)nc2c1=O | 1.78% |
| O=C(O)C1C2C=CC(O2)C1C(=O)Nc1cccc(F)c1 (stereo not shown) | -1.79% |
| CCOC(=O)c1sc(NC(=O)c2ccc(OC)c(OC)c2)c(C#N)c1C | 8.6% |
| Cc1ccc(-n2nc(C)c3c(C)c(CCC(=O)O)c(C)nc32)cc1 | -6.87% |
| COc1ccc(OC)c(-n2nnc(-c3nsc(NC(=O)c4ccccc4Cl)n3)c2C)c1 | -3.85% |
| Cc1ccc(-n2nnc(-c3nc(-c4ccc(Cl)cc4)no3)c2N)cc1C | -2.15% |
| Cc1cc(C)c2c(n1)SCC(=O)N2CC(=O)NCC1CCCO1 (stereo not shown) | -4.15% |
| O=C(NC(=S)N1CCCCCC1)c1cccs1 | -0.267% |
| Cc1cc2nc(CSc3nnc(NC(=O)c4ccco4)s3)cc(=O)n2o1 | -3.2% |
| O=[N+]([O-])c1ccc(N2CCCCCC2)nc1 | 3.44% |
| CCOC(=O)C(=O)NC(Cc1ccccc1)c1ccccc1 (stereo not shown) | 1.13% |
| CCOc1ccc(CCN2C(=O)c3cccnc3C2=O)cc1OCC | -7.8% |
| COc1cccc(NC(=O)c2ccc([N+](=O)[O-])cc2Cl)c1 | -3.26% |
| C=CCOc1ccc(CNC(C)(C)C)cc1OCC | -1.63% |
| Cc1ccc(C)c(OCc2nc(-c3ccncc3)no2)c1 | -3.62% |
| CCOc1ccc(NC(=O)COc2ccc3ccccc3c2Br)cc1 | 9.13% |
| Cc1ccnc(NC(=O)c2cc(-c3ccc(C)c(C)c3)[nH]n2)c1 | -2.18% |
| Cc1ccccc1CSCC(=O)NC1CCCCC1 | -2.14% |
| Cc1cc(O)cc(=O)n1CCCn1ccnc1 | -2.91% |
| CC12COC3(C(=O)NCCc4ccccc4)CC1CCC32C (stereo not shown) | 4.67% |
| C=CCn1c(SCCCC)nc(O)cc1=O | -6.08% |

| Structure (SMILES) | % Inhibition @ 10 uM |
| --- | --- |
| CCCSc1nnc2c(n1)OC(C)(C)Nc1ccccc1-2 | 1.72% |
| CC(C)(C)N1C(=O)NC(=O)/C(=C\c2c[nH]c3ccccc23)C1=O | 17.9% |
| NC(=O)c1c(NC(=O)c2sc3ccccc3c2Cl)sc2c1CCCC2 | 5.31% |
| COc1ccc2c(C)c(C(=O)NCC(C)O)oc2c1OC (stereo not shown) | -3.58% |
| CCOC(=O)C1=C(c2ccccc2)NC(=O)NC1c1ccccc1Cl (stereo not shown) | -0.357% |
| O=C(CCc1nnc2ccc(N3CCCC3)nn12)NCCc1c[nH]c2ccccc12 | -4.32% |
| Cc1nn(Cc2ccc(Cl)c(Cl)c2)c(C)c1NC(=O)C1CC=CCC1C(=O)O (stereo not shown) | -0.366% and -5.15% |
| O=C1CC(N2CCc3ccccc3C2)C(=O)N1c1cccc(C(F)(F)F)c1 (stereo not shown) | -8.88% |
| N#CC1=C(N)Oc2[nH]nc(-c3cccs3)c2C1c1ccc(C(F)(F)F)cc1 (stereo not shown) | 2.67% |
| CC(C)(C)c1cc(C(C)(C)C)cc(S(=O)(=O)CCc2ccncc2)c1 | -1.69% |
| CN1CCCN(Cc2c(F)cccc2Cl)CC1 | -5.11% |
| CCCCN(C)C(=O)c1c(C)nn(-c2ccc(C)cc2)c1-n1cccc1 | -3.54% |
| Cc1c(Cc2ccccc2)c(O)nc2nc(O)sc12 | 1.76% |
| CCCCSCCCNC(=O)C1=C(C)C(=O)OC12CCC(C)CC2 (stereo not shown) | -1.89% |
| CCCC1=C(C(=O)OCC)C(c2cccc(C(F)(F)F)c2)C(C#N)=C(N)O1 (stereo not shown) | 1.08% |
| CCOC(=O)C1=C(C)N=c2s/c(=C\c3ccc(C(=O)OC)cc3)c(=O)n2C1c1ccc(Cl)cc1 (stereo not shown) | -0.339% |
| CCOc1ccc(CCNC(=O)C2CC(=O)N(C3CCCC3)C2)cc1OCC (stereo not shown) | 6.86% |
| N#Cc1ccccc1NC(=O)CSc1nc2ccccc2s1 | -3.19% |
| CC(C)(C)NC(=O)CC(c1ccccc1)c1cc(Cl)ccc1O (stereo not shown) | -4.49% |
| COc1ccc(C2C(C#N)=C(N)Oc3[nH]nc(C(C)(C)C)c32)c(OC)c1OC (stereo not shown) | -4.48% |
| COc1ccc(NC(=O)CN(c2cc(C)cc(C)c2)S(=O)(=O)c2ccccc2)cc1OC | -5.49% |
| C=CCOC(=O)C1=C(C)N=c2s/c(=C/c3ccc(OC)cc3)c(=O)n2C1c1ccc(OC)cc1 (stereo not shown) | -5.63% |
| Cc1ccc(CSc2nc(=O)c3c(n2C)NC(=O)CC3c2cc(F)cc(F)c2)cc1 (stereo not shown) | 8.34% |
| O=C(O)C1CCCN1S(=O)(=O)c1ccc(Cl)c(C(F)(F)F)c1 (stereo not shown) | 3.93% |
| O=C(NCC1CCN(C(=O)c2ccccc2)CC1)c1ccccc1 | 2.48% |

| Structure (SMILES) | % Inhibition @ 10 uM |
| --- | --- |
| Clc1cccc(-c2nc(NCCN3CCOCC3)nc3c2COc2ccccc2-3)c1 | -10.6% |
| O=C(NCc1ccc2c(c1)OCO2)c1ccc(CS(=O)Cc2ccc(Cl)cc2)o1 (stereo not shown) | -5.77% |
| CC(C)c1cc(C(=O)NCc2cccnc2)no1 | -7.15% |
| COc1ccc2nc(NC(=O)c3cc(=O)c4ccc(C)c(C)c4o3)sc2c1 | 1.9% |
| C[C@H](N[C@H](C)[C@@H](O)c1ccccc1)[C@H](O)c1ccccc1 | 0.324% |
| O=C(Cn1ncc2ccsc2c1=O)NCCN1CCC(Cc2ccccc2)CC1 | 2.04% |
| CNC(=O)C1CCC(=O)N1Cc1ccccc1Cl (stereo not shown) | 6.32% |
| CCOc1ccc(NC(=O)c2c(NC(=O)COc3ccccc3)sc3c2CCC3)cc1 | 0.992% |
| CN1CCN(c2ccc3nnc(CCC(=O)O)n3n2)CC1 | -1.03% |
| CC(=O)c1cc2c(cc1NC(=O)C1CCCCC1)OCO2 | -5.7% |
| O=C(CNS(=O)(=O)c1ccc(F)cc1)Nc1ccc(C(F)(F)F)cc1 | 5.25% |
| CCOc1ccc(NC(=O)C2=C(C)NC(=O)NC2c2ccccc2)cc1 (stereo not shown) | -7% |
| CC(C)C[C@H](NC(=O)N1CCN(c2ccc(Cl)c(Cl)c2)CC1)C(=O)NCC#N | -3.48% |
| O=C(c1ccc(-c2ccccc2)cc1)N1CCN(C/C=C/c2ccccc2)CC1 | -0.192% |
| N#Cc1c(SCC(=O)c2cccs2)nc2c(c1-c1ccncc1)CCCC2 | 4.12% |
| O=C(Nc1ccc(-c2ccccc2)cc1)c1ccc(Br)cc1 | 0.98% |
| O=C(CC12CC3CC(CC(C3)C1)C2)Nc1cnn(Cc2ccc(F)cc2)c1 | -3.05% |
| COc1ccc(CN(C)S(=O)(=O)c2nnc(NC(=O)c3ccccc3OC)s2)cc1OC | 6.15% |
| COc1cc(/C=C(\C2=NC(=O)CS2)c2nc3cccnc3n2C)ccc1O | -9.31% |
| O=S(=O)(NC1CCCCC1)c1ccc(S(=O)(=O)N(Cc2ccccc2)CC2CCCO2)cc1 (stereo not shown) | 2.05% |
| COCCNC(=O)CCCc1cn(Cc2ccc(F)cc2)c2ccccc12 | -2.07% |
| CCc1nnc(NC(=O)c2cc3c(C)nc4ccccc4c3o2)s1 | -3.45% |
| O=C1c2oc3ccccc3c(=O)c2C(c2cccc(O)c2)N1c1nccs1 (stereo not shown) | -4% |
| c1ccc(CN2CCN(c3ncccn3)CC2)cc1 | -1.18% |
| COc1ccccc1N1CCN(C(=O)CNS(=O)(=O)c2cc(Cl)ccc2Cl)CC1 | -1.02% |

| Structure (SMILES) | % Inhibition @ 10 uM |
| --- | --- |
| CN1CCN(c2ccc(C(F)(F)F)cc2[N+](=O)[O-])CC1 | 2.92% |
| CN(C)CCn1c(=O)c2nc[nH]c2n(C)c1=O | -1.22% |
| CCOc1c(N2CCC(C)CC2)c(=O)c1=O | 8.71% |
| COc1ccc(S(=O)(=O)N(CC(=O)Nc2cccnc2)c2ccc(F)cc2)cc1OC | 0.323% |
| C=C(C)C1CCC(C)=C1COC(C)=O (stereo not shown) | -1.77% |
| CCCOc1ccc(C(=O)Nc2ncc(Cc3ccccc3Cl)s2)cc1 | -1.06% |
| Cc1nc(O)nc(O)c1S(=O)(=O)N1CCN(C(c2ccccc2)c2ccc(Cl)cc2)CC1 (stereo not shown) | -7.77% |
| CC1CCN(CC(O)COCc2ccccc2)CC1 (stereo not shown) | -2.15% |
| CC1CCCC(NC(=O)CNC(=S)N2CC3CC(C2)c2cccc(=O)n2C3)C1C (stereo not shown) | 1.16% |
| COc1ccc2c(c1OC)C(=O)OC2 | -9.77% |
| CCCCC(=O)C1CCN(Cc2ccccc2)CC1 | -2.21% |
| CC(=O)NC(CO)C(=O)c1ccc([N+](=O)[O-])cc1 (stereo not shown) | 1.29% |
| CS(=O)(=O)c1ccc2nc(NC(=O)c3ccccc3Cl)sc2c1 | 0.76% |
| CC(=O)C12CC=CCC1CC1C3CC=C4CC(O)CC[C@]4(C)C3CC[C@@]12C (stereo partly shown) | -7.09% |
| COc1ccc(OC)c(NC(=O)c2ccccc2Cl)c1 | 2.27% |
| COCCCNc1oc(/C=C/c2cccc(OC)c2)nc1C#N | 2.54% |
| COc1cccc(C(=O)COc2ccc(N3C(=O)C4CC=C(C)CC4C3=O)cc2)c1 (stereo not shown) | -2.74% |
| CN(C)c1ccc(C(=O)Nc2nc3ccccc3s2)cc1 | 2.78% |
| Cc1cc(C)n(-c2ccc3ccccc3n2)n1 | -3.16% |
| CCOc1ccc(C2C(C(=O)OC)=CN(CCOC)C=C2C(=O)OC)cc1 | -8.96% |
| CSc1ccc(C2CC(c3c(O)cc(C)oc3=O)=NCCS2)cc1 (stereo not shown) | -4.11% |
| Nc1c(C(=O)c2ccc(-c3ccccc3)cc2)sc2nc3c(c(-c4ccc(Cl)cc4)c12)CCCC3 | -6.44% |
| Cc1c(NC(=O)c2cccc([N+](=O)[O-])c2C(=O)O)c(=O)n(-c2ccccc2)n1C | 0.912% |
| CSc1ncc(C(=O)NCc2ccco2)c(-c2ccccc2)n1 | 4.01% |
| CC(C)CC(NC(=O)c1ccc(O)cc1)C(=O)NCC#N (stereo not shown) | 2.22% |
